# Test results from PubChem BioAssay AID1345083 (National Center for Advancing Translational Sciences (NCATS), 2018).
# Out of some 94,000 compounds screened, about 6,200 (6.6%) were called active. The inconclusive results got no clear call from the source; some entries with a clear call stand among them for comparison. The call rests on the fitted dose curve; in most records, active means well fitted inhibition curve with a large enough effect; inconclusive means small, poorly fitted or top-dose-only effect; inactive means flat fitted curve, though single readings scatter. Potencies beside an inconclusive call are fits to weak or partial responses and may not hold up.
# Assay: Cytotoxic Profiling in HEK 293 Cell Line of Diverse Libraries Using Quantitative High-Throughput Screening; further: nearly all actives have a fitted effect of over 60% in size
# Conditions: HEK 293 viability, ATP luminescence (CellTiter-Glo), 48-72 h; activity change, negative = cytotoxicity: at 115 µM (top of the series) unless noted; series mostly up to 115 µM
# How it was run: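 qHTS cytotoxicity; HEK 293, 250 cells/well; compound pinned; 48 or 72 hr, 37 degree Celsius, 5% CO2, 95% humidity; CellTiter-Glo, 10 min RT; luminescence (ATP).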
# On the % scale 0 is the no-effect control and ±100 the full control effect; potency means the concentration at half of the fitted maximal effect; tags describe the fitted curve by direction and shape.
SMILES,Potency,"activity change, negative = cytotoxicity",outcome
COc1cccc(N2C(=O)NC(=NC3CCCC3)C23CCCN(CCC(C)C)C3)c1 (configuration not stated),"inconclusive: 44.7 µM [inhibitor, partial curve, poor fit]",–,–
CCOc1cc(C(=O)N2CCC[C@H]2c2nc(-c3ccc(OC)cc3)no2)cc(OCC)c1OCC,"inconclusive: 50.1 µM [inhibitor, partial curve, poor fit]",–,–
COc1cccc(C(=O)N2CCc3nc(-c4ccccc4)nc(-c4ccc(Cl)cc4)c3C2)c1,active: 39.8 µM,–,–
COc1ccc(-c2noc(CC3CCN(C(=O)Cc4ccc(OC)c(Cl)c4)CC3)n2)cc1,"inconclusive: 50.1 µM [inhibitor, partial curve, poor fit]",–,–
O=C(c1ccc(-c2ccc(N3CCSCC3)nc2)cc1)N1CCCCC1,"inconclusive: 17.8 µM [inhibitor, full curve, poor fit]",–,–
CCN(CC)Cc1nnc2cc(-c3nc(-c4ccccc4)no3)ccn12,"inconclusive: 89.1 µM [inhibitor, single point]",–,–
COC1CN(C2CCN(C(=O)c3cccc4[nH]ccc34)CC2)C12CCOCC2 (configuration not stated),–,inactive: -0.879%,–
Cc1ccc(C(=O)N2CCC3(CC2)NC(=O)N(c2cccc(F)c2)N3)s1,"inconclusive: 25.1 µM [inhibitor, partial curve, poor fit]",–,–
Cc1ccc(Nc2ccnc(N3CCCC(C(=O)NCc4cccc(Cl)c4)C3)n2)cc1 (configuration not stated),"inconclusive: 31.6 µM [inhibitor, full curve]",–,–
CCC(CC)N(CC)C(=O)CC1C(=O)NCCN1Cc1ccc(C)o1 (configuration not stated),–,–,inactive
CC1=C[C@@H](CNC(=O)c2ccccc2)[C@H](C(C)C)C[C@H]1Cc1nc2ccccc2n1C,active: 25.1 µM,–,–
O=C(c1ccccc1-c1ccccc1)N1CCC(c2ncc[nH]2)CC1,"inconclusive: 89.1 µM [inhibitor, single point]",–,–
O=c1c2nc(Nc3ccc(C(F)(F)F)cc3)ccc2ncn1C1CC1,"inconclusive: 79.4 µM [inhibitor, partial curve, poor fit]",–,–
Cc1cc(=O)n(CC(=O)Nc2cccc(F)c2)c(N(C)Cc2ccccc2)n1,"inconclusive: 17.8 µM [inhibitor, full curve, poor fit]",–,–
COc1cccc(-c2nnnn2[C@H]2CO[C@H]3[C@@H]2OC[C@@H]3NC(=O)c2ccc(C(F)(F)F)cc2)c1,"inconclusive: 17.8 µM [inhibitor, full curve, poor fit]",–,–
COc1ccc(NC(=O)O[C@@H]2CO[C@H]3[C@@H]2OC[C@@H]3n2nnnc2SCc2ccco2)cc1,–,inactive: -4.5%,–
CCOCCCNc1ncnc2c1CN(c1cccc(C)c1)C(=O)CN2C,–,inactive: -0.106%,–
N#Cc1cccc(-c2cn3c(n2)N(C(=O)c2ccccc2)CCC3)c1,"inconclusive: 50.1 µM [inhibitor, partial curve, poor fit]",–,–
COc1ccc(Cl)cc1-c1ccc2c(c1)C(=O)N1CC[C@H](NC(=O)c3cccs3)[C@H]1C(=O)N2,active: 35.5 µM,–,–
COc1ccc(C(=O)N2CCCN(c3ccnc4ccnn34)CC2)cc1,"inconclusive: 70.8 µM [inhibitor, partial curve, poor fit]",–,–
C1=C(c2nc(-c3ccncc3)cc3c2ccn3Cc2cccnc2)CCOC1,"inconclusive: 100 µM [inhibitor, partial curve, poor fit]",–,–
COc1ccc(C)cc1NC(=O)CN1C(=O)NC2(CCC(C(C)(C)C)CC2)C1=O (configuration not stated),"inconclusive: 56.2 µM [inhibitor, partial curve, poor fit]",–,–
Cc1cc2nc3n(c(=O)c2n1CC(=O)Nc1ccc2c(c1)OCCO2)CCCC3,–,inactive: 2.44%,–

SMILES,Potency,"activity change, negative = cytotoxicity",outcome
O=C(NCCc1ccccc1)C1CCCN(Cc2cccc(-c3ccsc3)c2)C1 (configuration not stated),"inconclusive: 39.8 µM [inhibitor, partial curve, poor fit]",–,–
COc1ccc(-c2nc3c(c(-c4ccccc4)n2)CN(C(=O)c2cccc(Cl)c2)CC3)cc1,"inconclusive: 31.6 µM [inhibitor, full curve]",–,–
COc1ccccc1-n1c(=O)c(C(=O)N2CCN([S+](=O)([O-])c3cccs3)CC2)nc2cccnc21,–,inactive: 0.116%,–
COc1ccccc1CN1Cc2cc(NC(=O)c3ccc([N+](=O)[O-])cc3)ccc2OC(C)C1=O (configuration not stated),"inconclusive: 31.6 µM [inhibitor, full curve]",–,–
O=C(C1CCC1)N1CCC(C(=O)N2CC(Oc3ccccc3)C2)CC1,–,inactive: -27.3%,–
Cc1nc(-c2ccc(OC3CCN(C(=O)NC4CCCCC4)C3)cc2)no1 (configuration not stated),"inconclusive: 35.5 µM [inhibitor, partial curve, poor fit]",–,–
COc1ccc(CNC(=O)Cn2ccn3nc(-c4ccc(F)cc4)c(CO)c3c2=O)cc1OC,"inconclusive: 31.6 µM [inhibitor, full curve, poor fit]",–,–
CN(C)c1ccc(CN2Cc3[nH]cnc3C[C@H]2c2nc(-c3ccccc3)no2)cc1,"inconclusive: 100 µM [inhibitor, partial curve, poor fit]",–,–
CC(C)c1ccc(CC(=O)N2CCCc3ncc(C(=O)NCCc4ccccn4)cc32)cc1,"inconclusive: 50.1 µM [inhibitor, partial curve, poor fit]",–,–
Cc1nc(-c2c3n(c(=O)n(CC(=O)Nc4ccc(Cl)cc4)c2=O)CCCCC3)no1,–,inactive: 5.02%,–
CN(C)C(=O)NC1CCN(c2ccc3nnc(C4CC4)n3n2)C1 (configuration not stated),–,inactive: -1.29% [at 172 µM],–
COc1ncccc1-c1cc(-c2ccc(=O)[nH]c2)c2cncn2c1,"inconclusive: 63.1 µM [inhibitor, full curve]",–,–
CNc1ccc(C)cc1C(=O)N1CCC2(CCCN(C)CC2)CC1,–,inactive: -27.7%,–
Fc1cccc(-c2cnc([C@@H]3COCCN3Cc3ccc(Cl)cc3)[nH]2)c1,active: 79.4 µM,–,–
CCN1CCN(C(=O)C2CCCCC(=O)N2)CC1 (configuration not stated),–,inactive: 10.8%,–
CCN1CCN(CC(=O)NCc2ccc3[nH]c(-c4ccc(F)cc4)c(C)c3c2)CC1,active: 17.8 µM,–,–
O=C(C[C@@H]1CCNC[C@@H]1Cc1cc(CSc2ccccc2)on1)NC1CC1,–,inactive: -25.6% [at 172 µM],–
COCC(=O)NC1CCC12CCN(C(=O)c1ccco1)CC2 (configuration not stated),–,inactive: -13.6%,–
CCc1ccc(S(=O)(=O)N2C[C@@H](F)C[C@H]2C(=O)N2CCOCC2)cc1,–,inactive: 2.11%,–
CCc1nc2c(c(-c3ccc(OC)cc3)n1)CCN(C(=O)c1ccc(OC)cc1)CC2,–,inactive: -7.72%,–
Cc1cnc(C(=O)NC2C[C@H]3CC[C@@H](C2)N3C(=O)Cc2ccccc2)cn1 (some centres not stated),–,inactive: -20.9%,–
Cc1nc(N)nc(N2CCOC(Cc3noc(-c4ccccn4)n3)C2)c1C (configuration not stated),"inconclusive: 44.7 µM [inhibitor, partial curve, poor fit]",–,–
O=C(Cc1ccc(F)cc1)NCc1nnc2cc(-c3nc(C4CC4)no3)ccn12,"inconclusive: 22.4 µM [inhibitor, partial curve, poor fit]",–,–

SMILES,Potency,"activity change, negative = cytotoxicity",outcome
CC1(c2cccnc2)N(Cc2ccccc2)C(=O)OC12CCN(C(=O)Cc1ccc3c(c1)OCO3)CC2 (configuration not stated),–,inactive: -18.7%,–
COCCNC(=O)c1ccc2oc(-c3ccc(OC)nc3)nc2c1,"inconclusive: 89.1 µM [inhibitor, single point]",–,–
Cc1ccc(OCc2nc(C3CCCN3C(=O)Nc3ccccc3)no2)cc1 (configuration not stated),active: 89.1 µM,–,–
COCCOC(=O)C1=C(C)N=C2SC=C(CC(=O)N3CCCCC3C)N2C1c1ccccc1 (configuration not stated),active: 35.5 µM,–,–
COc1ccc(CNC(=O)CC[C@H]2CNC(=O)[C@@H]3[C@@H](CCN3C(C)C)N2C)cc1,–,inactive: 1.06% [at 172 µM],–
Cc1oc(-c2ccccc2)nc1CC(=O)NCc1cc2n(n1)CCNC2,–,inactive: -15.2%,–
Cn1nc(C2CCNC2)c2c(C(=O)NCc3ccc(F)cc3)cc(C3CC3)nc21 (configuration not stated),"inconclusive: 79.4 µM [inhibitor, partial curve]",–,–
CSc1ccc(CNC(=O)c2ccc3c(c2)N(C)C2CCCCN2C3=O)cc1 (configuration not stated),"inconclusive: 79.4 µM [inhibitor, single point]",–,–
COCCNC(=O)c1nc(-c2ccsc2)c2ccccn12,"inconclusive: 126 µM [inhibitor, single point]",–,–
O=C1CC(c2ccccc2)N(Cc2ccncc2)CCCN(C(=O)c2ccc3ncccc3c2)CCN1 (configuration not stated),"inconclusive: 100 µM [inhibitor, single point]",–,–
CC1(CNC(=O)c2ccc(C#N)cc2)CCOCC1,–,inactive: -2.63%,–
COc1cccc(CNC(=O)CN2C(=O)NC3(CCC(C(C)(C)C)CC3)C2=O)c1 (configuration not stated),"inconclusive: 8.91 µM [inhibitor, full curve, poor fit]",–,–
CC(C)CC(=O)N1CC(n2cc(COCC3CC3)nn2)C1,–,inactive: -5.2%,–
O=C(NCc1ccc(C(F)(F)F)cc1F)[C@H]1CCC[C@@H](O)C1,–,inactive: -11.8%,–
O=C(NCc1nnc2cc(-c3nc(C4CC4)no3)ccn12)C1CCC1,"inconclusive: 2.82 µM [inhibitor, full curve, poor fit]",–,–
CO[C@H]1C(=O)N(C(C)C)[C@H]1C1CCN(Cc2cccc(F)c2)CC1,"inconclusive: 89.1 µM [inhibitor, single point]",–,–
Cn1cccc1CN1CCC2(C1)C(=O)Nc1ccccc12 (configuration not stated),"inconclusive: 126 µM [inhibitor, partial curve, poor fit]",–,–
Cc1noc(C)c1-c1cc2cc(C(C)C)oc2c(-c2cccnc2)n1,"inconclusive: 89.1 µM [inhibitor, partial curve, poor fit]",–,–
CCN1c2cc(C(=O)Nc3cccc(OC)c3)ccc2C(=O)N2CCCCCC21 (configuration not stated),active: 31.6 µM,–,–
COc1cccc(CCC(=O)N2CCC(Cc3nc(-c4cccc(OC)c4)no3)CC2)c1,"inconclusive: 50.1 µM [inhibitor, partial curve, poor fit]",–,–
Cc1cn2nnc(C(=O)NCc3ccc(C(C)C)cc3)c2c(=O)[nH]1,"inconclusive: 50.1 µM [inhibitor, partial curve, poor fit]",–,–
